This note sets out measurements from PubChem BioAssay AID1240 (Sanford-Burnham Center for Chemical Genomics, 2008).

Structures are written as SMILES. Out of some 50,000 compounds screened, about 800 (1.6%) showed an effect of 50% or more. Some of the results follow.

This experiment addresses Bcl-2-like protein 10 (Homo sapiens) (UniProt Q9HD36). Put plainly: TR3 peptide-Bcl-B binding displacers, biochemical primary FP assay, phenotype converters (AID 1240).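 Note: 0% = Bcl-B with tracer peptide and DMSO and 100% = tracer peptide lacking Bcl-B.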 The following applies: GST-Bcl-B / FITC-TR3 peptide fluorescence polarization; stronger effect = higher value; compound at 3.75 mg/L.
Sequence of UniProt Q9HD36 (Q9HD36 whole entry, looked up): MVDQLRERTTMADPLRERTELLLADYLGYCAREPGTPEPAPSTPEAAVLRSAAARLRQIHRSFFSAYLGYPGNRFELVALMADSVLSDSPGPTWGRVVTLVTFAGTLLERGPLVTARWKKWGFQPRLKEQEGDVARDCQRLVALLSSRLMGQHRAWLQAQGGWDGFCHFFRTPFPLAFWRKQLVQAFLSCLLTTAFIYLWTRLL
Consider `CCOc1cc(-c2nnc(-c3ccc(Br)o3)o2)cc(OCC)c1OCC`, for which the displacement is 22.7%.
As for `O=C(Nn1cnnc1)c1cccc(Cl)c1`, the displacement worked out at 4.5%.
For `Cc1cc2nc3s/c(=C\c4cc5c(cc4[N+](=O)[O-])OCO5)c(=O)n3c2cc1C`, the displacement was -0.7%.
`CN1CCN(CCCOc2ccc(Br)cc2)CC1`: the displacement is -8.4%.
For `COc1ccc(OC)c(NC(=O)c2cc(-c3cccc(Br)c3)nc3ccccc23)c1`, the displacement worked out at 25.1%.
Take `CC(=O)Nc1ccc(C(=O)Nc2ccc(Br)cc2)cc1`: the displacement is 3%.
On to `COc1ccc(S(=O)(=O)Nc2ccc(Oc3ccccc3)cc2)cc1`, for which the displacement was -4.9%.
With `O=C(O)c1cc2nc(-c3ccc4c(c3)OCO4)cc(C(F)(F)F)n2n1` the figure was 7.3%.
As for `CC(C)Oc1ccccc1NC(=O)CSc1nnc(-c2cccc(F)c2)n1-c1ccccc1`, the displacement is -16.2%.
To `O=S(=O)(c1ccc(Cl)cc1)N1CCOC(c2ccccc2)C1` (stereo not given) belongs 17.7%; to `O=C(Nc1ccc(Cl)c(-c2nc3ccccc3[nH]2)c1)c1ccncc1`, 0.1%; to `O=C(CN(c1cccc([N+](=O)[O-])c1)S(=O)(=O)c1ccccc1)N[C@@H]1CCCC[C@H]1O`, 8.2%.
For `O=S(=O)(c1ccc(Cl)cc1)N1CCN(C2CCCCCC2)CC1`, the displacement is -2.3%.
On to `COc1ccc(NC(=O)COc2cc(C)c(Cl)c(C)c2)cc1OC`, for which the displacement amounted to 11.1%.
`COCCOC(=O)c1ccc(NC(=O)c2ccc(-c3ccccc3)cc2)cc1`: the displacement was -5.1%.
For `O=C(C(=Cc1ccc(-c2ccc(Br)cc2)o1)C(=O)c1ccccc1)c1ccccc1`, the displacement turned out to be 11.9%.
As for `Cc1cc(C=C2C(=O)c3ccccc3C2=O)c(C)n1-c1cccnc1`, the displacement is -15.5%.
For `CCN1C(=O)/C(=C/c2cccc(OC(=O)c3ccccc3I)c2)SC1=S`, the displacement was 10.5%.
Turning to `O=C(COc1ccc([N+](=O)[O-])cc1)Nc1ccc(OC(F)(F)F)cc1`, the displacement was -16.7%.
For `COc1ccc(N=Cc2c(O)c3ccccc3n2C(C)=O)cc1`, the displacement was -6.8%.
Regarding `Cc1ccc(O)c(/C=C2\Sc3ccccc3C2=O)c1`, the displacement was -8.7%.
With `CC(/C=C/c1ccco1)=N/NC(=O)CNc1ccc(C)cc1`, the displacement is -12.5%.
For the molecule `CCN1C(=O)/C(=C2\SC(=S)N(NC(=O)c3ccccc3Cl)C2=O)c2ccccc21`, the displacement amounted to 13.6%.
Consider `O=C(O)/C=C/c1cccc(/C=C/C(=O)O)c1`, for which the displacement was -7.2%.
As for `CCC(=O)c1ccc(N2CCN(C(=O)CC)CC2)c(F)c1`, the displacement is -11.2%.
`O=c1c2c3c(sc2ncn1/N=C/c1ccccc1)CCCC3`: the displacement is 10.6%.
As for `COc1ccc(-c2cc(C(=O)N/N=C(\C)c3ccc([N+](=O)[O-])cc3)[nH]n2)cc1`, the displacement came to 1.5%.
Take `Cc1ccc(N(CC(=O)NCCOc2ccc(F)cc2)S(=O)(=O)c2ccccc2)cc1C`: the displacement was -8.4%.
As to `C[n+]1cccc(C(O)P(=O)(c2ccccc2)c2ccccc2)c1` (stereo not given), the displacement was -8.7%.
With `C#CC(C)(C)NC(=O)/C=C/c1ccccc1Cl` the figure was 7.7%; with `COc1cc(C=C2C(=O)N(C)C(=O)N(C)C2=O)ccc1OCc1ccccc1Cl`, -1.1%; with `Cc1ccnc(N2C(=O)c3ccc(C(=O)c4ccc5c(c4)C(=O)N(c4cc(C)ccn4)C5=O)cc3C2=O)c1`, 5.1%.
With `O=[N+]([O-])c1ccc2nc(Sc3nnc(-c4ccccc4)n3-c3ccccc3)sc2c1`, the displacement is 12.9%.
With `O=C(Nc1nc2ccccc2s1)c1ccc(Oc2ccc([N+](=O)[O-])cc2)cc1`, the displacement came out at 3.3%.
With `CCc1cccc(NC(=O)c2cccc(F)c2)c1`, the displacement is -22.5%.
`C#CCOC(=O)c1ccc(S(=O)(=O)N2CCOCC2)cc1`: the displacement is -10.4%.
With `COc1ccc(-c2cn(/N=C/c3ccc(Cl)cc3Cl)c(N)n2)cc1`, the displacement is -7.2%.
As for `O=C1C(=O)N(c2nc3ccccc3s2)C(c2cccc(F)c2)/C1=C(/O)c1ccccc1` (stereo not given), the displacement worked out at 6%.
As for `C=CCN1C(=O)/C(=C\C=C\c2ccc(N(C)C)cc2)SC1=S`, the displacement was -15.3%.
To `O=C(CSc1cccc2cccnc12)N1CCCCC1` belongs -10.1%; to `CC(C)COc1ccc(C(=O)Nc2ccc([N+](=O)[O-])cc2)cc1`, 12.6%.
`CCN(CC)CCCNC(=O)c1ccc(Cl)cc1[N+](=O)[O-]`: the displacement was found to be 9.6%.
For `CCC(C(=O)Nc1ccccc1Cl)c1ccccc1` (stereo not given), the displacement was 0.1%.
Regarding `COc1cccc(NC(=O)/C=C/c2cccc([N+](=O)[O-])c2)c1`, the displacement was -8.6%.
With `O=[N+]([O-])c1cc(C2N(c3ccccc3)CCN2c2ccccc2)ccc1Cl` the figure was -5.4%; with `COc1cc(NC(=O)c2ccc(OCc3ccccc3)cc2)ccc1NC(=O)c1ccco1`, 0.4%; with `CCOC(=O)C1=C(C)NC2=C(C(=O)CCC2)C1c1ccc(OCc2cccc(F)c2)c([N+](=O)[O-])c1` (stereo not given), 6.8%.
Consider `N=c1n(CCOc2ccccc2)c2ccccc2n1CCN1CCOCC1`, for which the displacement was -5.8%.
As for `COC(=O)c1c(N)sc(C)c1-c1ccc(C)cc1`, the displacement was -8.5%.
To `CCN(CC)c1ccc(NC(=O)COc2cccc(C)c2)cc1` belongs 12.7%; to `Cc1ccc(-c2csc(NC(=O)C3C4CCC(C4)C3C(=O)O)n2)c(C)c1` (stereo not given), -0.1%; to `CCCc1c(O)nc(SCCN(C)C)[nH]c1=O`, 3%.
Regarding `CC(C(=O)N1CCN(Cc2ccc(Cl)cc2)CC1)N1C(=O)c2ccccc2C1=O` (stereo not given), the displacement was -8.7%.
For `NC(=O)c1cc(NC(=O)c2cc3ccccc3cc2O)cc(C(N)=O)c1`, the displacement is -4.2%.
With `O=C1c2ccccc2-c2onc3c(Cl)cc(Sc4ccccc4)c1c23`, the displacement was determined as 8.4%.
On to `COc1cc2c(cc1NC(=O)c1cccc([N+](=O)[O-])c1)oc1ccccc12`, for which the displacement was -4.6%.
With `COc1ccc(/C=C/C(=O)Nc2scc(-c3cccs3)c2C(=O)O)cc1OC` the figure was 15.3%.
Turning to `COCCCNS(=O)(=O)c1ccccc1[N+](=O)[O-]`, the displacement is -2.7%.
Consider `CCOC(=O)C1=C(C(=O)OCC)SC(=C2C(=S)C(C)(C)N(C(=O)c3ccc(OC)cc3)c3ccccc32)S1`, for which the displacement is -6%.
For the molecule `CC(=O)Nc1ccccc1NC(=O)c1ccc(F)cc1`, the displacement was found to be 8.5%.
To `COc1ccc(N(CC(=O)N(Cc2ccccc2)Cc2ccccc2)S(=O)(=O)c2ccccc2)cc1` belongs 3.2%; to `COc1cccc(C(=O)N2N=C(c3cccnc3)CC2(O)C(F)(F)F)c1` (stereo not given), -2.9%.
Consider `COc1ccc(CCNC(=O)C(=O)NCCCOC(C)C)cc1`, for which the displacement amounted to 10%.
With `Cc1ccc(C(=O)Nc2cccnc2)o1` the figure was 1.3%.
With `CN(C)c1ccc(/C=C2\SC(=S)N(/N=C/c3ccc(N(C)C)cc3)C2=O)cc1` the figure was 10.4%.
`Cc1ccc(C2C3=C(CC(C)(C)CC3=O)NC3=C2C(=O)CC(C)(C)C3)o1`: the displacement was 1.6%.
Consider `N#Cc1c(N)nc2cc(N)ccc2c1-c1ccc(O)cc1`, for which the displacement is -1.5%.
To `CCOc1ccc(N(CC(N)=O)S(C)(=O)=O)cc1` belongs 14%.
Regarding `CCCOc1ccc(CCc2n[nH]c(=S)n2-c2ccccc2)cc1`, the displacement is -8.3%.
For `O=C(NCCSc1ccccn1)c1cccc(Cl)c1`, the displacement worked out at 1.1%.
With `COc1cc(CN2CCN(Cc3cccc(Cl)c3)CC2)cc(OC)c1`, the displacement is -7.3%.
To `O=C(NCc1ccccc1)C1CC(=O)N(c2ccc(F)cc2)C1` (stereo not given) belongs 6.1%.
Turning to `CC1=C(C(=O)Nc2ccc(Cl)cc2)C(c2ccc([N+](=O)[O-])cc2)NC(=S)N1` (stereo not given), the displacement was 4.6%.
Consider `CC1(C)CC(=O)C2=C(C1)OC1=C(C(=O)CC(C)(C)C1)C2c1ccc(-c2ccc([N+](=O)[O-])cc2Cl)o1`, for which the displacement is -1.3%.
As for `COc1cccc(C(=O)N2CCN(C3CC4CCC3C4)CC2)c1` (stereo not given), the displacement is 15.4%.
On to `NC(=O)SCC(=O)Nc1ccc(Cl)c(Cl)c1`, for which the displacement stood at 4.7%.
For the molecule `COc1ccc(C(=O)Nc2cc3nn(-c4ccc(C)cc4)nc3cc2C)cc1Cl`, the displacement is -1.2%.
In the case of `COc1ccc(OCCCCN2CCN(C)CC2)cc1`, the displacement was -5.8%.
Turning to `Cc1ccc(-n2ncnc2-c2cccc(Br)c2)cc1Cl`, the displacement was -3.8%.
For `O=[N+]([O-])c1cc(C(F)(F)F)ccc1N1CCN(S(=O)(=O)c2ccc(Cl)cc2)CC1`, the displacement was found to be 5.2%.
With `O=C(NCCc1nc2ccccc2[nH]1)c1cccc(Br)c1`, the displacement came to 3.1%.
With `COc1cc(C(=S)N2CCCCC2)cc(Br)c1O` the figure was -8%; with `CCOc1ccc(/C=N/N2CCN(C(c3ccccc3)c3ccccc3)CC2)cc1`, -9.6%; with `CS(=O)(=O)N(CC(=O)Nc1ccc(Oc2ccccc2)cc1)c1ccccc1Cl`, 9.5%.
To `CN1C(=O)N2CN(C3CCCCC3)CN3C(=O)N(C)C1C23` (stereo not given) belongs 4.6%; to `Cc1cccc(N2CCN(C(=O)c3cccnc3)CC2)c1C`, 4%.
To `COc1ccc(CCN/C=C2\CC(=O)NC2=O)cc1OC` belongs 12.1%.
Regarding `Clc1cccc(OCCn2ccnc2)c1`, the displacement was found to be 3.3%.
For `Cc1c(Cl)cccc1N1CC(C(=O)Nc2nccs2)CC1=O` (stereo not given), the displacement came out at 0.3%.
For the molecule `CCC(=O)Nc1ccc(NC(=O)COc2ccccc2)cc1`, the displacement is -4.5%.
With `CCC(CC)C(=O)NC1CCCCCC1` the figure was -9.7%; with `CCOC(=O)CCP(=O)(CC)CC`, -3.6%; with `CCOc1ccccc1NC(=O)c1ccc(Cl)c(Cl)c1`, -0.9%.
`COCc1cc(=O)n2[nH]c(-c3ccc(Br)cc3)cc2n1`: the displacement was -9.7%.
With `O=C(/C=C/c1ccc(F)cc1)c1cccc([N+](=O)[O-])c1`, the displacement is -9.3%.
Consider `Cc1cc(Cl)ccc1NC(=O)c1ccc(I)cc1`, for which the displacement stood at 7.8%.
As for `CCOC(=O)c1ccc(N2NC(=O)/C(=C/c3ccc(OC)c(Br)c3)C2=O)cc1`, the displacement was 8.5%.
To `COc1cc(/C=N/NC(=O)Cc2nnc(N)s2)ccc1OCc1ccc(Cl)cc1Cl` belongs 19.8%.
For the molecule `COc1ccc(-c2nnc(SCC(=O)Nc3ccc(C)cc3Br)o2)cc1`, the displacement was found to be 14.5%.
As to `Cc1cc(OCCOc2ncnc3ccccc23)ccc1Cl`, the displacement is -6%.
With `COc1cc(/C=C2\C(=O)NC(=O)N(c3ccc(F)cc3)C2=O)ccc1O`, the displacement is -8.6%.
For the molecule `O=C(N/C(=C\c1cccnc1)C(=O)N1CCCCC1)c1cccc(Br)c1`, the displacement is -8.1%.
Consider `COc1ccccc1NC(=O)CSc1ccc(Cl)cc1Cl`, for which the displacement was 16.6%.
For the molecule `O=C(Nc1ccc(N2CCOCC2)cc1)c1ccc2c(c1)OCCO2`, the displacement turned out to be 11.2%.
As to `c1ccc2c(Oc3ncnc4sc5c(c34)CCCC5)cccc2c1`, the displacement was -7.2%.
To `Cc1cc(C)c(S(=O)(=O)NCCN2CCOCC2)c(C)c1` belongs -8.7%; to `Cc1cc(-c2ccc(/C=c3\sc4nc5cc(Br)cnc5n4c3=O)o2)c(C)c([N+](=O)[O-])c1`, -1.6%.
With `CN1CCN(CCCCOc2ccc(Br)cc2)CC1` the figure was 1.8%; with `CCOc1ccccc1NC(=O)c1ccc(OC)cc1`, -0.2%; with `COc1ccc(-c2cc(C(=O)Nc3nc4ccc(S(C)(=O)=O)cc4s3)c3ccccc3n2)cc1`, -1.1%.
